From article PMC12040169 (PLOS Biology, 2025)
Some of the results follow.

test system: T1, C. trachomatis L2/434/Bu expressing GFP (CTL2-GFP); parameters: species or system HeLa; C. trachomatis total inclusion area by high-content imaging, normalised to DMSO; conditions: total inclusion area; 28.5 h, 10 µM; inhibitor
T1 construct: L2/434/Bu GFP intracellular growth in HeLa cells
Procedure, shortened: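 High-content imaging followed the bulk GFP/resorufin measurement: fixed, Hoechst-stained cells were scored for GFP inclusions and host nuclei per well. Total inclusion area and count served as growth proxies, nuclei number as the viability proxy. MIC calculation matched the bulk assay.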

Compound | % of control remaining
O=C(NCc1ccco1)[C@@H]1C=CCN1C(=O)NCc1ccccc1 [CBK284293] | 95.5291
Cc1nccc(-c2cccc(NC3CCN(c4ccc5c(c4)OCCO5)CC3)c2)n1 [CBK286439] | 102.642
CCOC(=O)c1sc2ncccc2c1N [CBK115371] | 98.1521
Nc1ncc(-c2cccc(CO)c2)nc1N1CCOCC1 [CBK063406] | 133.82
Cc1cccc(N2CCN(C(=O)C3C4CCC(O4)C3C(=O)O)CC2)c1C (stereo not shown) [CBK287044] | 77.7158
Cc1cccc(-c2ncc(NC(=O)c3cccc(N(C)C)c3)nc2-c2ccco2)c1 [CBK036654] | 93.6915
COc1ccc2[nH]cc(CCNC(=O)c3ccc(Cl)c(Cl)c3)c2c1 [CBK115870] | 24.7342
COc1ccc(C(NC(=O)C2CCN(CCOc3ccc4ccccc4c3)CC2)c2ccccc2C)cn1 (stereo not shown) [CBK148792] | 4.834
Cc1csc2c(N3CCC(NCCc4ccnn4C)CC3)ncnc12 [CBK307515] | 57.3363
CC(Oc1ccc(S(=O)(=O)N2CCN(C)CC2)cc1)C(=O)NC1CCCCC1 (stereo not shown) [CBK269943] | 90.9091
Cc1sc2nc(C3CC3)n(C3CCNCC3)c(=O)c2c1C [CBK284228] | 80.6184
Cc1nn(-c2ccccc2)c(Cl)c1CN1C(=O)NC2(CCCC2)C1=O [CBK305070] | 53.285
FC(F)(F)c1ccnc(OC2CCNCC2)n1 [CBK113294] | 100.625
O=C(c1cccnc1)N1CCN(c2ncccn2)CC1 [CBK144516] | 83.3598
Cc1c(Cl)cccc1NC(=O)CSc1nccn1C [CBK270297] | 90.8852
Cc1c(S(=O)(=O)N2CCC(N)C2)sc2ccc(Cl)cc12 (stereo not shown) [CBK164970] | 56.0755
Cc1ccc2c(c1)CC(=O)NC21CCN(CCc2noc3ccccc23)CC1 [CBK081072] | 90.5267
CCCc1ccc(S(=O)(=O)N2CCOC(c3cnn(CC)c3)C2)cc1 (stereo not shown) [CBK306169] | 29.665
O=C(c1ccc(F)cc1F)N1CCC(O)(c2ccccn2)CC1 [CBK283671] | 67.2484
Cn1cncc1C(=O)N1CCc2ccccc21 [CBK200412] | 87.3928
Cc1c(OCc2ccccc2)ccc2c1OC1(CCN(C(=O)c3ccsc3)CC1)CC2=O [CBK156445] | 85.8366

Compound | % of control remaining
Cc1ccccc1Sc1cccc(C(F)(F)F)n1 [CBK115243] | 90.4612
c1cc2[nH]ccc2c(N2CCNCC2)n1 [CBK051673C] | 87.0719
CCN(CC)C(=O)c1[nH]c2ccccc2c1NS(=O)(=O)c1ccc(C(F)(F)F)cc1[N+](=O)[O-] [CBK050109] | 85.4873
COCCNC(=O)C(C)SCc1ccccc1 (stereo not shown) [CBK028889] | 56.0356
c1cnc2c(c1)cc([C@H]1CCCO1)n2CCN1CCCC1 [CBK282289] | 89.302
Cc1ccc(NS(=O)(=O)c2cc(C(=O)N3CCN(Cc4ccc5c(c4)OCO5)CC3)ccc2C)cc1 [CBK268521] | 80.0687
O=S(=O)(c1ccc2c(c1)nc1n2CCC1)N1CCOCC1 [CBK019200] | 49.8975
Nc1cccc(-c2nc(-c3cccnc3)cnc2N)c1 [CBK063906] | 125.823
O=C(CSc1ccc(-c2ccncc2)nn1)Nc1ccc(F)cc1 [CBK287297] | 105.185
COc1ccc(C2=NN(c3ccc([N+](=O)[O-])cc3)C(=O)/C2=C\NCCN2CCOCC2)cc1 [CBK264563] | 100.157
COc1ccccc1NC(=O)c1c(NC(=O)Cc2ccccc2)sc2c1CCC(C(C)(C)C)C2 (stereo not shown) [CBK264102] | 79.9135
CC1CCc2c(sc(NC(=O)c3cccs3)c2C(=O)N2CCOCC2)C1 (stereo not shown) [CBK307101] | 47.4038
CCN(CC)CCCNC(=O)N(CCC#N)C1CCCCC1 [CBK156377] | 61.6693
Cc1cccc2c3c([nH]c12)C1(CCCN(CCc2ccc([N+](=O)[O-])cc2)C1)NCC3 (stereo not shown) [CBK039558] | 69.6256
COCC(=O)N1CCc2sccc2C1c1ccc(NCc2ccc(F)cc2F)cc1 (stereo not shown) [CBK286460] | 107.984
O=C(Nc1ccccc1Oc1ccc(F)cc1)c1ccc(Cn2cncn2)cc1 [CBK285587] | 102.987
O=C(CC1CCN(C(=O)CC2CCCCC2)CC1)NCc1ccccc1N1CCCC1 [CBK285962] | 126.999
O=C1Nc2cc(Cl)ccc2C(=O)N2CC[C@H](NC(=O)N3CCOCC3)[C@@H]12 [CBK289340] | 112.179
COc1cccc(NC(=S)NCCCN2CCOCC2)c1 [CBK264548] | 79.8653
CN1CCN(CCOC(=O)N2CCCC(C(F)(F)F)C2)CC1 (stereo not shown) [CBK200207] | 101.233
C=CCNC(=O)N[C@H]1[C@H](O)[C@@H](N2CCN(c3ccccc3OC)CC2)[C@@H]2OC[C@H]1O2 [CBK288818] | 101.388

Compound | % of control remaining
Fc1ccc(-c2nccnc2OCc2ccccn2)cc1 [CBK106894] | 95.4718
O=c1[nH]c2ncc(-c3ccncc3)nc2n1C1CCCC1 [CBK064972] | 114.112
C[C@@H]1CN(C(=O)c2nccc3ccccc23)C[C@H](C)O1 [CBK200233] | 107.174
O=C(NC(c1ccc2ccccc2n1)c1cccs1)C1CCNCC1 (stereo not shown) [CBK148331] | 91.9411
O=C(CN1CCC(c2ccc(F)cc2)CC1)N1CCCCC1 [CBK283640] | 80.0686
COc1ccc(C(=O)c2sc3nc(C)cc(C)c3c2N)cc1 [CBK115362] | 104.617
NC(=O)CN1CCC(Oc2nccnc2OCc2cccnc2)CC1 [CBK083165] | 55.7043
Cc1cc(-c2nc3ncccc3o2)ccc1NC(=S)NC(=O)c1cc2ccccc2o1 [CBK268922] | 86.7834
COc1ccc(-c2cc(C(=O)Nc3cnc4ccccc4c3)cnc2-c2cccc(C)c2)cn1 [CBK037425] | 88.3052
CNCC1CCN(S(=O)(=O)c2ccc(OCc3ncnn3C)cc2)CC1 [CBK304309C] | 76.7004
O=C1COc2ccccc2C/C=C/C[C@H]2CN(C(=O)CN3CCCCCC3=O)CC[C@H]2N1 [CBK292116] | 95.654
Cc1cc(C)nc(SCc2csc(N)n2)n1 [CBK019838] | 74.8065
O=C(CCNC(=O)c1ccc(Br)o1)NCc1ccccc1Cl [CBK294454] | 92.8998
CSCCOc1nc2ccccc2nc1N1CCCC1 [CBK115770] | 107.532
Cc1nc2c(OCC(=O)C(C)(C)C)cccn2c1N(C)C(=O)C1CCCCC1 [CBK147145] | 99.9216
CC(=O)N1CCC(N2C[C@H](O)C[C@H]2c2nc(C3CC3)no2)CC1 [CBK288845] | 107.091
CCOc1ccccc1C(=O)N1CCC(Cc2ccccc2-c2ccccc2)(C(N)=O)CC1 [CBK285910] | 117.241
C[C@@H]1CN(Cc2ccccc2)C[C@H](C)N1 [CBK001569] | 98.0043
COc1cccc(C(=O)Nc2nnc(-c3ccco3)o2)c1 [CBK287421] | 73.7305
Cc1sc(-c2c(F)cccc2F)nc1O [CBK067729] | 52.8178
Cc1ccccc1-c1nnc2n1CCCCC2 [CBK200076A] | 106.95

Compound | % of control remaining
Cc1ncsc1CCOc1ncccc1C(F)(F)F [CBK115781] | 85.4313
Oc1cc2cccnc2nc1-c1ccc(OCc2ccccc2)c(F)c1 [CBK073708] | 94.5633
CSc1ccc(-c2cnc3nc(N)ccc3c2)cc1 [CBK081169] | 93.3134
CN(C)C(=O)CN1C(=O)[C@H]2CCCN2C(=O)c2ccccc21 [CBK282854] | 120.056
COc1cc(CNc2cncc(-c3ccc(N)cc3)n2)cc(OC)c1OC [CBK065483] | 67.8883
Nc1ncc(-c2ccoc2)nc1NCc1ccncc1 [CBK063656] | 83.9189
CCCNC(=O)Cn1cnc2sc(C)c(C)c2c1=O [CBK305863] | 52.2228
CCOc1cc(/C=C2\SC(=N)NC2=O)ccc1OCc1ccc(Br)cc1 [CBK263813] | 108.33
CCCCN(C)c1c(C)nc2c(Oc3nc4ccccc4s3)cccn12 [CBK147192] | 80.0268
Cn1nc(C2CCN(C(=O)c3ccccc3F)CC2)c2cccnc21 [CBK285019] | 82.9747
CCCn1ccnc1CNc1nc(C)nc2c1c(C)nn2C [CBK307459] | 77.2294
CC(C)(C)NS(=O)(=O)c1ccc(NC(=O)COc2ccc3ccccc3c2Br)cc1 [CBK267015] | 118.262
C1C/C(=N/N=C2\CCCc3nonc32)c2nonc2C1 [CBK006721] | 41.3707
CN1CCN(C(=O)C2CCCCC2C(=O)O)CC1 (stereo not shown) [CBK287092] | 110.462
NC(=O)C1CCN(Cc2nc(-c3cccc(C(F)(F)F)c3)no2)CC1 [CBK304276] | 78.0508
COc1ccc(C(=O)Nc2cccc3nsnc23)cc1OC [CBK260973] | 81.7204
Cc1c(OCc2ccc(C(=O)O)cc2)ccc2c(-c3ccccc3)cc(=O)oc12 [CBK296080] | 82.7495
O=C1c2ccccc2C(c2ccc(NC(=O)c3cccc4ccccc34)cc2)(c2ccc(NC(=O)c3cccc4ccccc34)cc2)c2ccccc21 [CBK261162] | 89.1126
O=C(Nc1nccs1)c1nccnc1-c1ccc(COc2ccccc2)cc1 [CBK050839] | 125.287
